Screen size: about 46,000 compounds; about 60 (0.1%) were called active. Inconclusive results (about 3%) are left out. The call rests on the fitted dose curve; in most records, active means well fitted inhibition curve with a large enough effect; inconclusive means small, poorly fitted or top-dose-only effect; inactive means no such curve, though single readings can be large or run the other way. Some of the results follow.
Assay: Primary qHTS assay for Inhibitors of ovarian cancer metastasis using an organotypic tumor microenvironment (TME) model. Further: nearly all actives have a fitted effect of over 65% in size.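 On activity change, negative = inhibition: plate controls were DMSO wells for no effect and tomatine positive control wells for full effect.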
Settings: SKOV3ip1-GFP adhesion/invasion on 3D omental model, fluorescence; series mostly up to 45.8 µM; activity change, negative = inhibition: at the top concentration
Summary of the method: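 Primary human omental fibroblast/mesothelial 3D culture pre-formed 48 h. SKOV3ip1-GFP cells added with compounds (0.36-46 umol/L), incubated 2 h RT/16 h 37 C, fixed; GFP cells quantified at 488/509 nm.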

Activity change, negative = inhibition, inactive:
CC(=O)N1CCc2cc(S(=O)(=O)NC(CC(C)C)C(=O)Nc3ccc(C(C)C)cc3)ccc21 (centres undefined) -9.71%, CCOc1ccc(CNC(=O)c2cccc(NC(=O)N3CCSc4ncccc43)c2)cc1 6.23%, COc1ccc(CNC(=O)c2ccc3nc(CCc4ccccc4)oc3c2)cc1OC -13.6%, CCn1c(C(=O)N2CCC(C(=O)N3CCN(c4cc(C)ccc4C)CC3)CC2)cc2sccc21 -14%, CC(C)CC(=O)Nc1nc2c(s1)CC(C(C)(C)C)CC2 (centres undefined) -11.3%, CCOC(=O)N1CCc2c(sc3c2c(=O)n(Cc2ccccc2)c(=O)n3Cc2cc(C)ccc2C)C1 -7.02%, Cc1cc(-c2ccc(C)c(S(=O)(=O)N3CCC(C)CC3)c2)on1 -2.75%, COc1ccc(CC(=O)NC2CC(=O)N(c3cccc(F)c3)C2)cc1OC (centres undefined) -23.9%, Cc1ccc(C2=Nc3ccccc3N(CC(=O)Nc3ccccc3F)C(=O)C2)cc1C -13.3%, CCN(CC)CCCNC(=O)Cc1ccc(NC(=O)N2CCCCc3ccccc32)cc1 4.78%, O=c1oc2ccccc2cc1-c1nnc(Nc2ccc(Cl)cc2Cl)s1 0.716%, O=C(Nc1cccc(Cl)c1)c1ccc2nc(CCc3ccccc3)oc2c1 -8.22%, CCC1Oc2ccc(C)cc2N(CC(=O)NCc2ccc(OC)cc2)C1=O (centres undefined) 10.2%, CC(C)Oc1ccc(CNC(=O)C2CCN(c3nc4ccccc4nc3C(F)(F)F)CC2)cc1 -26.2%, COc1cc(OC)c(NC(=O)C2CCN(C(=O)c3sc4nc[nH]c(=O)c4c3C)CC2)cc1Cl -5.37%, CC(=O)NC1CC(=O)N(c2ccc3c(c2)OCCO3)C1 (centres undefined) 0.267%, CCC(=O)N1CCc2cc(Br)cc(S(=O)(=O)N3CCC(C(=O)Nc4ccccc4CC)CC3)c21 7.54%, CCOc1cccc(C(=O)N2CCC(c3nc4ccccc4s3)CC2)c1 -2.26%, Cn1nc(-c2ccccc2F)c2cc(C(=O)NCCc3ccc(Cl)cc3)sc21 -23.5%, O=C(c1ccc(Br)cc1)N1CCN(CCc2ccncc2)CC1 19.4%, CCOC(=O)C1CCN(C(c2cccc(F)c2)c2c(O)cc(C)n(Cc3ccco3)c2=O)CC1 (centres undefined) 0.391%, Cc1ccc(S(=O)(=O)Cc2ccc(C(=O)NCCc3ccc(Cl)cc3)o2)cc1 -27.3%, Brc1cccc(-c2nnc(CN3CCN(c4ccccn4)CC3)o2)c1 -1.1%, CN(C)c1ccc(CNC(=O)c2cnc3sc(N4CCOCC4)nn3c2=O)cc1 -6.27%, CC(=O)c1ccc(NC(=O)CSc2ccc(-c3cccs3)nn2)cc1 1.39%, CCOc1ccc(-c2nc(SCC(=O)c3ccccc3)n[nH]2)cc1 -7.63%, CCOC(=O)c1c(S(=O)(=O)N2CCCC(C(=O)Nc3cc(C)ccn3)C2)c(C)n(C)c1C (centres undefined) -9.39%, CCOC(=O)c1ccc(NC(=O)CCC(=O)N2Cc3ccccc3Oc3ncccc32)cc1 -4.79%, COc1ccc(OC)c(NC(=O)C2CCN(S(=O)(=O)c3ccc4c(c3)CCCC(=O)N4)CC2)c1 -12.7%, O=C(NC1CCCCC1)c1ccc(CSc2nc3cccnc3n2Cc2ccc(F)cc2)cc1 -4.04%, CCOC(=O)c1cc(C)n(CC2CCC(C(=O)Nc3cccc(C)c3)CC2)c1C (centres undefined) 27.3%, COC(=O)C1=C(C)NC(=O)C1(NC(=O)c1cc(OC)c(OC)c(OC)c1)C(F)(F)F (centres undefined) -6.79%, Cc1cccc(Nc2nnc(-c3ccc(C)c(S(=O)(=O)NCC4CCCO4)c3)c3ccccc23)c1 (centres undefined) 6.07%, CCOC(=O)c1ccc(N2C(=O)c3n[nH]c(-c4ccco4)c3C2c2ccc(O)c(OCC)c2)cc1 (centres undefined) -1.68%, Cc1cccc(-n2c(Cc3ccccc3)nnc2SCc2nc(-c3cccs3)no2)c1 9.02%, O=C1c2[nH]nc(-c3ccccc3O)c2C(c2ccccc2F)N1Cc1cccnc1 (centres undefined) 2.38%, O=C(CN1C(=O)COc2ccc(S(=O)(=O)N3CCCC3)cc21)N1CCN(c2ccc(F)cc2)CC1 -24%, COC(=O)c1ccc(NC(=O)CN2C(=O)CCc3cc(S(=O)(=O)N4CCCCC4)ccc32)cc1 67.2%, Cc1cnc(CNC(=O)c2c(=O)c3ccc(N4CCCN(C)CC4)nc3n3c2sc2ccccc23)cn1 2.27% [at 23.2 µM], Cc1[nH]c(=O)[nH]c(=O)c1S(=O)(=O)N1CCN(c2ccccc2Cl)CC1 6.57%, O=C(O)CCn1c(=O)c2cccn2c2cccnc21 -8.54%, CCOC(=O)c1cc(-c2ccccc2)n(CCCC(=O)Nc2cccc(C)c2C)c1C -2.98%, CCc1ccccc1Nc1nn2c(=O)c3ccc(C(=O)NC(C)c4ccccc4)cc3nc2s1 (centres undefined) -3.35%, CCc1ccc(NC(=O)CC2C(=O)N(c3ccc(Cl)cc3)C(=O)N2Cc2ccco2)cc1 (centres undefined) 8.07%, COc1ccccc1NC(=O)c1sc2nc(C)c(C(=O)Nc3ccc(C)cc3C)c(-c3cccs3)c2c1N 8.02%, CCOC(=O)c1c(C)[nH]c(CCC(=O)NCc2ccc(F)cc2)c1C -6.46%, CC(C)(C)C1CCc2c(sc3nc(-c4cc5cc(Br)ccc5oc4=O)[nH]c(=O)c23)C1 (centres undefined) 7.85%, CC(=O)Nc1ccc(NC(=O)c2cc3sccc3n2Cc2ccc(F)cc2)cc1 -4.1%, CCc1ccc(CN2CCc3nc(Nc4ccccc4)ncc3C2)cc1 5.11%, Cc1cccc2sc(N(Cc3cccnc3)C(=O)c3cccs3)nc12 0.919%, CCOc1cc2[nH]c(=O)n(CCCCC(=O)N3CCN(c4cccc(Cl)c4)CC3)c(=O)c2cc1OCC 0.533%, Cc1ccc(NC(=O)Cc2ccc(-n3c(C)nc4cccnc43)cc2)c(Cl)c1 8.92%, CCC(=O)N1CCc2cc(Br)cc(S(=O)(=O)CCC(=O)NCc3ccccc3OC)c21 -2.69%, Cc1ccc(-c2noc(-c3ccccc3NC(=O)c3ccccc3)n2)cc1 18.4%, CCCCN(CC)C(=O)CSc1nc2n[nH]c(C)c2c(=N)n1-c1cccc(Cl)c1 -8.98%, CCOC(=O)c1[nH]c(C)c(CCC(=O)N2CCN(c3cccc(OC)c3)CC2)c1C -4.56%, Cc1ccc(CNC(=O)C(=O)Nc2c3c(nn2-c2ccccc2)CSC3)cc1 -12.4%, COc1ccc(CCNC(=O)C(=O)Nc2ccccc2F)cc1 -1.73%, CC1CCN(S(=O)(=O)c2ccc3c(c2)N(CC(=O)NC(C)c2ccccc2)C(=O)CS3)CC1 (centres undefined) 5.62%, COc1ccccc1CNS(=O)(=O)c1ccc2c(c1)CC(C)N2C(C)=O (centres undefined) 2.44%, O=C(NCc1ccccc1)c1ccc(CNS(=O)(=O)c2ccc(Br)cc2)cc1 -3.89%, Cc1cc(C)c(NC(=O)c2cc(S(=O)(=O)N3CCC4(CC3)OCCO4)ccc2F)c(C)c1 4.46%, Cc1ccc(-c2nc(NC(=O)CSc3cc(C)c4ccccc4n3)ns2)cc1 -2.67%, CCCn1c(=O)c2[nH]c(-c3cnn(Cc4cccc(C(F)(F)F)c4)c3)nc2n(CC)c1=O 2.89%, COC(=O)c1ccc(NC(=O)CC2C(=O)N(c3cccc(OC)c3)C(=O)N2Cc2cccs2)cc1 (centres undefined) -15.5%, CCc1ccc(NC(=O)N2CCOc3ccc(Cl)cc32)cc1 4.91%, COc1cc(Cl)c(S(=O)(=O)NCCc2c(C)[nH]c3c(C)cccc23)cc1Cl 40.2%, CCc1ccc(NC(=O)CSc2nc(=O)n(Cc3ccccn3)c3c2CCC3)cc1 6.05%, O=C(Nc1nnc(S(=O)(=O)N2CCCc3ccccc32)s1)c1cccc(Cl)c1 -7.47%, COc1cccc(C2C(C(=O)Nc3ccc(C)cc3C)=C(C)Nc3c(C(=O)Nc4ccccc4)cnn32)c1 (centres undefined) -2.21%, CC1CCCN(C(=O)CSc2c3c(nc4cc(Cl)ccc24)CCCC3)C1 (centres undefined) -13%, COC(=O)c1ccc(C2c3c(-c4ccccc4O)n[nH]c3C(=O)N2Cc2cccnc2)cc1 (centres undefined) 15.4%

outcome, inactive:
CC(=O)N1c2ccc(S(=O)(=O)N3CCCCCC3)cc2CC1C(=O)NC(C)C (centres undefined), CCc1nn(CCCC(=O)N2CCN(c3cc(Cl)ccc3C)CC2)c(=O)c2cc3occc3n12, COc1ccccc1Nc1sc(C(=O)c2ccc3c(c2)OCO3)c(N)c1S(=O)(=O)c1ccccc1, CCOC(=O)c1c(C)n(S(=O)(=O)c2ccc(C)cc2C)c2ccc(NS(=O)(=O)c3ccc(C)cc3C)cc12, CCCn1c2ccccc2c2cnn(CC(=O)NCc3ccccc3Cl)c(=O)c21, Cc1ccc(-c2nc3cc(Cl)ccc3o2)cc1NC(=O)c1cc([N+](=O)[O-])ccc1N1CCOCC1, COc1cccc(C2CC(=O)Nc3cc4c(cc32)OCO4)c1OC(C)C (centres undefined), Cc1nc(-c2ccccc2)sc1-c1ccc(SCC(=O)Nc2cccc(C(F)(F)F)c2)nn1, COc1ccc(-c2noc(N(c3cccc(Cl)c3)c3nc(-c4ccc(OC)c(OC)c4)no3)n2)cc1OC, COCCCNC(=O)c1cnc2c(-c3ccc(F)cc3)c(C)nn2c1C, C=Cc1ccc(Cn2nc(-c3ccc(C)cc3)ccc2=O)cc1, Cc1cc(C)nc(NC(=NCCc2c[nH]c3ccc(Cl)cc23)NC(=O)c2ccccc2C)n1, COCCNc1ccc(-c2nc(-c3ccco3)no2)cc1[N+](=O)[O-], O=C1CC(c2nnc(Cc3ccc(F)cc3Cl)o2)CN1c1ccccc1 (centres undefined), N#Cc1ccccc1Cn1c(=O)n(-c2cccc(C(F)(F)F)c2)c(=O)c2sccc21, COc1ccc(S(=O)(=O)NCC(c2ccco2)N2CCN(c3ccccc3)CC2)cc1OC (centres undefined), Cc1ccc(NC(=O)C(=O)NCC(c2cccnc2)N2CCN(c3ccccc3F)CC2)cc1Cl (centres undefined), CCOc1ccc(NC(=O)Cn2ncc3c2-c2cc(C)ccc2OC3)cc1, COc1ccccc1C(=O)NCCn1cc(SCC(=O)Nc2ccccc2F)c2ccccc21, CC(C)Cn1cc(NC(=O)N2CCN(c3cccc(Cl)c3)CC2)c2ccccc2c1=O, Cc1ccc(C)c(N2CCN(S(=O)(=O)c3ccc4[nH]c5c(c4c3)CCCCC5)CC2)c1, O=C(Nc1cc(-c2nc3cc(Cl)ccc3o2)ccc1Cl)c1ccco1
